Assay [1] concerns the target GFP-FAN1 wild-type (wt), full-length (human) (UniProt Q9Y2M0). Description: co-IP; GFP-Trap agarose on whole-cell extracts (HEK293 eGFP-FAN1 cells induced with Dox, or HEK293 cells transfected with GFP-FAN1 constructs, with FLAG-USP7 in Fig. 1G); NP-40 buffer with 120 mM NaCl, Benzonase; 2 h or overnight, 4 °C; immunoblotting.
Assay [2] concerns the target FLAG-USP7 wt, full-length (human) (UniProt Q93009). Briefly: co-IP; anti-FLAG M2 affinity resin on whole-cell extracts of HEK293, HEK293 eGFP-FAN1 (Dox-induced) or HEK293T cells transfected with FLAG-USP7 constructs; NP-40 buffer with 120 mM NaCl, Benzonase; 4 °C; immunoblotting.

The chains behind the UniProt entries cited, without tags or fusion partners.
UniProt Q9Y2M0: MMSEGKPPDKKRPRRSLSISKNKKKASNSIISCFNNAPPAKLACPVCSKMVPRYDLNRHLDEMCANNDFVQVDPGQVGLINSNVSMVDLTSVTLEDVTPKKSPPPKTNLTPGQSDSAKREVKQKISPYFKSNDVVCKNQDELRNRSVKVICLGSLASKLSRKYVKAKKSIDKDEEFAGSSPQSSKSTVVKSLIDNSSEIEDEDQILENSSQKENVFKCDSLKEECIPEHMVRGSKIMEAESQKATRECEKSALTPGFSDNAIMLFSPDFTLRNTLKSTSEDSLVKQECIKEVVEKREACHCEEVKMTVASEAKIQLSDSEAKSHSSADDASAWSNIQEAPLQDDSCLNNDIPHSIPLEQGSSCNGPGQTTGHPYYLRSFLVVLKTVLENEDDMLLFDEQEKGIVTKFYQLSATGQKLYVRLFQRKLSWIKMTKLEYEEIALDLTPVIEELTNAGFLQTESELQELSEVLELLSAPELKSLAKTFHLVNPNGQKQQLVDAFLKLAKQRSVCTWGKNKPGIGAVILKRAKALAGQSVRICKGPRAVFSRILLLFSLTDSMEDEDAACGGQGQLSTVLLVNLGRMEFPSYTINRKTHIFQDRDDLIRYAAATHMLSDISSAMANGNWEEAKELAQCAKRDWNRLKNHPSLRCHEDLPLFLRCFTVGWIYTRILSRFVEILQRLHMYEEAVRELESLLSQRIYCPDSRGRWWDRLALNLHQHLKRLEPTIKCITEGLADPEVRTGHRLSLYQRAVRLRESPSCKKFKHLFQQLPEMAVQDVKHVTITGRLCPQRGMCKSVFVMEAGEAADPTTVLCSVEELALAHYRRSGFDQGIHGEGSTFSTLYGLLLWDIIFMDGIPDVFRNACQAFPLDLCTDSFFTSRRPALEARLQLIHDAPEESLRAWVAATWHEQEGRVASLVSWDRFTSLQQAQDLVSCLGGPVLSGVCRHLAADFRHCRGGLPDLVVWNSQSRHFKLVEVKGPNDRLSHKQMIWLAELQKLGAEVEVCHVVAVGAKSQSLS
UniProt Q93009: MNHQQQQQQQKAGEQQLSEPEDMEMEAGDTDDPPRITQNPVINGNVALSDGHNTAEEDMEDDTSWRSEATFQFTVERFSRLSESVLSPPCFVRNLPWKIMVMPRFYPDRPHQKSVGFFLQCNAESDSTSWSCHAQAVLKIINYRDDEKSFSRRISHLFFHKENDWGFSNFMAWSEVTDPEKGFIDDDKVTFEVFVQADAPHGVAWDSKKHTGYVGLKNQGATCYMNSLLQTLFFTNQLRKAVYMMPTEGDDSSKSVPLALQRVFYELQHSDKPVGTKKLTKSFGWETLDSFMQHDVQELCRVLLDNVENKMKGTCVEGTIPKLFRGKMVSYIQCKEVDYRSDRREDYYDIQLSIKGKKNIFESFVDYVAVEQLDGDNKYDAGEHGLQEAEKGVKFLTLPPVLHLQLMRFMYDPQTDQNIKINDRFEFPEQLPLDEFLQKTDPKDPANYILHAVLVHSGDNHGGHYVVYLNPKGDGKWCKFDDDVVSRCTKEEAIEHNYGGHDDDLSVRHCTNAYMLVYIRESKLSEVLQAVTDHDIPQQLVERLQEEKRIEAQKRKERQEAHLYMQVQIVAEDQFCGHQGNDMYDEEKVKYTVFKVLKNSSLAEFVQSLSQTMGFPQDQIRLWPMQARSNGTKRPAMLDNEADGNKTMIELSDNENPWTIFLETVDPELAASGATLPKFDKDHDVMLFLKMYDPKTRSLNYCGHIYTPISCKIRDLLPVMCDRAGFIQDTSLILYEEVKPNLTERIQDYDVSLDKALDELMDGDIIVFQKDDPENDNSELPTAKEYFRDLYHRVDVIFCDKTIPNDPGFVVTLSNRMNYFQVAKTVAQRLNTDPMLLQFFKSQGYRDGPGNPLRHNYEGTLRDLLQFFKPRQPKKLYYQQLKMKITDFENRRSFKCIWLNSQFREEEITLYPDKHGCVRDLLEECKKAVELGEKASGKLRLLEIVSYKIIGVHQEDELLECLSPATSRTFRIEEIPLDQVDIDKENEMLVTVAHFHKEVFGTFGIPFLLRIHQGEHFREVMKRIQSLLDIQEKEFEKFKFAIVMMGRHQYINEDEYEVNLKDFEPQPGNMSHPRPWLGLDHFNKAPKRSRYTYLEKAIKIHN

Results are given in words; binding and its absence hold for the method and conditions named. In cells and extracts the contact can be indirect. Some results given as binding are weak or reduced against the parent protein; the word gives no strength.

Our source for the binding values is PMC13086964, “USP7 deubiquitinase stabilizes FAN1 to support DNA crosslink repair and suppress CAG repeat expansion” (Nature Communications, 2026).

B1: endogenous USP48 (HEK293 cells) (enzyme, UniProt Q86UV5 1-1035)
chain: MAPRLQLEKAAWRWAETVRPEEVSQEHIETAYRIWLEPCIRGVCRRNCKGNPNCLVGIGEHIWLGEIDENSFHNIDDPNCERRKKNSFVGLTNLGATCYVNTFLQVWFLNLELRQALYLCPSTCSDYMLGDGIQEEKDYEPQTICEHLQYLFALLQNSNRRYIDPSGFVKALGLDTGQQQDAQEFSKLFMSLLEDTLSKQKNPDVRNIVQQQFCGEYAYVTVCNQCGRESKLLSKFYELELNIQGHKQLTDCISEFLKEEKLEGDNRYFCENCQSKQNATRKIRLLSLPCTLNLQLMRFVFDRQTGHKKKLNTYIGFSEILDMEPYVEHKGGSYVYELSAVLIHRGVSAYSGHYIAHVKDPQSGEWYKFNDEDIEKMEGKKLQLGIEEDLAEPSKSQTRKPKCGKGTHCSRNAYMLVYRLQTQEKPNTTVQVPAFLQELVDRDNSKFEEWCIEMAEMRKQSVDKGKAKHEEVKELYQRLPAGAEPYEFVSLEWLQKWLDESTPTKPIDNHACLCSHDKLHPDKISIMKRISEYAADIFYSRYGGGPRLTVKALCKECVVERCRILRLKNQLNEDYKTVNNLLKAAVKGSDGFWVGKSSLRSWRQLALEQLDEQDGDAEQSNGKMNGSTLNKDESKEERKEEEELNFNEDILCPHGELCISENERRLVSKEAWSKLQQYFPKAPEFPSYKECCSQCKILEREGEENEALHKMIANEQKTSLPNLFQDKNRPCLSNWPEDTDVLYIVSQFFVEEWRKFVRKPTRCSPVSSVGNSALLCPHGGLMFTFASMTKEDSKLIALIWPSEWQMIQKLFVVDHVIKITRIEVGDVNPSETQYISEPKLCPECREGLLCQQQRDLREYTQATIYVHKVVDNKKVMKDSAPELNVSSSETEEDKEEAKPDGEKDPDFNQSNGGTKRQKISHQNYIAYQKQVIRRSMRHRKVRGEKALLVSANQTLKELKIQIMHAFSVAPFDQNLSIDGKILSDDCATLGTLGVIPESVILLKADEPIADYAAMDDVMQVCMPEEGFKGTGLLGH
On to B1, for which the binding result in assay [1] is “binds”.

B2: RNF169 (protein, UniProt Q8NCN4 1-708)
chain: MAAAGPSTRASSAAAAAALSRRGRRGRCDETAAAKTGAPGPASGPSLLVLSPPLLQPPLPPRPEESGCAGCLEPPGEAAALPCGHSLCRGCAQRAADAAGPGCPRCRARGPGWARRRARDDGQADSEVLGECARRSQPERCRPRRDGGAAAAGPRPEQEPRAAPAEPDFIFRAPIKLSKPGELREEYESLRKLREEKLQEEKPSEDQIHKLLPEDTETGKRKMDEQKKRDEPLVLKTNLERCPARLSDSENEEPSRGQMTQTHRSAFVSKNNSYSLAFLAGKLNSKVERSQSCSDTAQERAKSRVRAVPGNKAKVTTMTPASNPIIGVLLSTQNNRCVSAPDLTIEKRLPFSSLSSLASLHKPERSVSPESNDSISEELNHFKPIVCSPCTPPKRLPDGRVLSPLIIKSTPRNLNRSLQKQTSYEASPRILKKWEQIFQERQIKKTLSKATLTSLAPEMGEELLGSEGIHSSKEKPLVAVNTRLSGGQVLSEYTGPTSADLDHFPSVSQTKAEQDSDNKSSTEIPLETCCSSELKGGGSGTSLEREQFEGLGSTPDAKLDKTCISRAMKITTVNSVLPQNSVLGGVLKTKQQLKTLNHFDLTNGVLVESLSEEPLPSLRRGRKRHCKTKHLEQNGSLKKLRQTSGEVGLAPTDPVLREMEQKLQQEEEDRQLALQLQRMFDNERRTVSRRKGSVDQYLLRSSNMAGAK
Turning to B2, in assay [2], the binding result is given as “binds”.
